# Test results published in the RNAGym collection of RNA variant scans (doi:10.7554/elife.90254).
# The source gives no read counts; variants with many changes may rest on few reads.
# B1: LINE1-mini (parent)
# chain: GGCAGAGCUCAACACAGCGUGGCAAAGUGGCUGUGGCUAGACUGCC
# Variants of: B1
# Assay: self-cleavage, relative activity (ratio to wild type); higher = more cleavage; in vitro, sequencing; the parent is a self-cleaving ribozyme
row,Variant,self-cleavage
1,G2A C13G U20G G21C C42U G44A C46U,0.17
2,G2A G7A C15A U20C G21C G27C G30A,0.29
3,G2C A11U U20G U32G U34G C42G,0.01
4,G2C A4U C13A A16C G27U,0.07
5,G2A C15G U38A,0.04
6,G2C C10A C46A,0
7,G2A C18G C31U,0.07
8,G2C A4G G5C C8A C31U G44C,0.17
9,G2C G5A C10U A24G U34G,0.02
10,G2C A4G A12C G22U G40U,0.05
11,G2C C8A C18A G22C C45U,0.06
12,G2A G17C G21C C23U C45U,0.13
13,G2C A4C C10U,0.05
14,G2C C10A G19U,0.01
15,G2C G5A G19C G21U G40C,0.01
16,G2C A11C U28A,0.04
17,G2A G29C C45G,0.95
18,G2C C10G A12C U38A A41U,0
19,G2A U9A U28A,0.67
20,G2C A6G G27C G36C C42G,0
21,G2C C3A C23A,0.42

row,Variant,self-cleavage
1,G2C C8A U20A,0.1
2,G2A G5A U43A,0.65
3,G2A C15A U28C U34A,0.1
4,G2C A6C C23A,0.08
5,G2C G17U U28C U34G G44A,0.01
6,G2A G21U C42A,0.11
7,G2A C23U C37U,0.07
8,G2A G40U U43G,0.01
9,G2C G17U G27C G33C U34A,0.02
10,G2A G7U C10A G30U U32A A39C G44A,0.03
11,G2A U9G C10A C37G C42A,0.01
12,G2C G5C G17C A26C G27U,0.03
13,G2C A14C G19A,0
14,G2A G35A G36C A41C,0.12
15,G2C C13A U34G,0.08
16,G2A G17U A39G C46G,0.06
17,G2A G5U G19C G36U,0.19
18,G2C C10G A12C A41U C42A,0.01
19,G2C A12G G40A,0.08
20,G2C G5A A16C,0.28
21,G2A C15U A26C G27A,0.35

row,Variant,self-cleavage
1,G2C A6U C23A G36A,0.07
2,G2C G5A C23A,0.05
3,G2C A11U C23G,0.03
4,G2C G17A G19A U20C G27C C31G,0.01
5,G2C G7U C8A G30U,0.06
6,G2C A6G C31A,0.04
7,G2C A4C A11G G35A,0.02
8,G2C A14C G44C,0.23
9,G2C A14U A39G,0.07
10,G2C A4C A24C,0.02
11,G2C A4C A16G G21C G27A G36U C37G,0.01
12,G2C A6U A26U A39U,0.02
13,G2C A12U A26C U32C,0.02
14,G2C C10A A16G G36U,0
15,G2C C18A C31A,0.01
16,G2C A6U G7C C23U A26U C31G A41C C46G,0.03
17,G2A C15A G17U,0.12
18,G2C G7A A25G,0.1
19,G2A G27C C31U,0.13
20,G2A G27C C31A,0.35
21,G2C C18U U32C G33C G44A,0

row,Variant,self-cleavage
1,G2C C13A G30A C31U U32A,0.35
2,G2C A16C A26C C31U,0.03
3,G2A G17C A26C,2.55
4,G2C G19A C23A G27C G30U,0.12
5,G2C G5U C10A C23U G33U,0.03
6,G2A G22A C31U,0.2
7,G2C A4G G17U G21C U28A C45A,0.13
8,G2C A4U G21C G29A,0.05
9,G2A U32G G35U,0.16
10,G2C C18A C23A U38A,0.15
11,G2A C13U C18A U20C G30A,0.07
12,G2A C13G C18G,0.13
13,G2C G7A A11U G44C,0.01
14,G2C G17A G30A,0.1
15,G2C C3U A24C,0.05
16,G2C G7C A12G G17U,0.03
17,G2A C23U U32C G33U G35C,0.4
18,G2C G7C G40U,0.07
19,G2C C15U G30U U34C,0.15
20,G2C C18U G35U,0.12
